According to PubChem BioAssay AID686979 (National Center for Advancing Translational Sciences (NCATS), 2013):
Out of some 420,000 compounds screened, about 50,000 (12%) were called active. This list was built around the results that the source calls inconclusive (neither active nor inactive); the mix of calls is not that of the screen. Calls come from the whole dose curve; as a rule, active = well fitted inhibition curve with a large enough effect; inconclusive = small, poorly fitted or top-dose-only effect; inactive = flat fitted curve, though single readings scatter. Potencies of inconclusive entries are left out as doubtful fits.
% is set by controls: 0 for no effect and ±100 for the full control effect; potency is the fitted concentration of half-maximal effect; tags give direction and shape of the fitted curve.

Experiment: qHTS for Inhibitors of human tyrosyl-DNA phosphodiesterase 1 (TDP1): qHTS in cells in presence of CPT; note: nearly all actives have a fitted effect of over 55% in size
Conditions: chicken DT40 Tdp1-/-;hTDP1 cells + 20 nM CPT, ATP luminescence, 48 h; activity change, negative = growth inhibition: at 46.2 µM (top of the series)
Summary of the method: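 Chicken DT40 Tdp1-/- cells complemented with human TDP1, 400 cells/well, exposed to compounds plus 20 nM camptothecin for at least 48 h at 37 C; viability read as ATP content by CellTiter-Glo luminescence.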
In the case of `C=CC[C@@H](CC(=O)N[C@@H](CO)Cc1ccccc1)C(=O)N[C@@H](COC(=O)[C@@H](CC=C)Cc1ccc(F)cc1)Cc1ccccc1`, the “activity change, negative = growth inhibition” value is reported as inactive: -19.2%.
With `O=C1c2c(-c3ccc(Br)cc3)noc2CCN1Cc1cn(Cc2cccnc2)nn1` the Potency was inconclusive [inhibitor, single point].
In the case of `Cc1ccc(S(=O)(=O)N(Cc2ccccc2)c2ccccc2C(=O)NCc2ccco2)cc1`, the Potency is reported as inconclusive [inhibitor, partial curve, poor fit].
In the case of `CCCCN1C(=O)/C(=C/C=C2\SCCN2C)SC1=S`, the Potency is reported as inconclusive [inhibitor, single point].
With `O=C(CC(=O)c1ccccn1)c1ccccc1` the Potency was active: 20.6 µM.
For `COc1ccccc1CNC(=O)CCCN1C(=O)COc2ccc(C)cc21`, the Potency was inconclusive [inhibitor, partial curve, poor fit].
For `CC(=O)Nc1ccc(S(=O)(=O)Oc2ccccc2N2CCCCC2)cc1`, the Potency was inconclusive [inhibitor, single point].
In the case of `COc1ccc(CCn2c(SCC(=O)Nc3cc(C)on3)nc3ccccc3c2=O)cc1OC`, the activity change, negative = growth inhibition is reported as inconclusive: -31.2% [inhibitor].
In the case of `CS(=O)(=O)c1cccc(C(=O)N(CCc2ccccc2)Cc2cccs2)c1`, the Potency is reported as inconclusive [inhibitor, partial curve, poor fit].
With `CCCCn1nnnc1C1(C)CCC(=O)N1CC1CCCCC1` (stereo unspecified) the “activity change, negative = growth inhibition” value was inactive: -17.4%.
In the case of `CCOc1ccccc1/C=c1\sc2nc(-c3ccco3)nn2c1=O`, the Potency is reported as inconclusive [inhibitor, single point].
For `Cc1ccc(NC(=O)COCC(=O)Nc2ccc(F)cc2)cc1`, the Potency was active: 18.4 µM.
For `COc1ccc(C)cc1NC(=O)C(=O)NCC(c1cccnc1)N1CCc2ccccc21` (stereo unspecified), the Potency was inconclusive [inhibitor, single point].
In the case of `O=C(NCc1cccnc1)c1cc(C2CCCN(C(=O)c3ccc4c(c3)CCO4)C2)on1` (stereo unspecified), the Potency is reported as inconclusive [inhibitor, partial curve].
With `CC1CN(CCc2ccccc2)c2nc3c(c(=O)n(C)c(=O)n3C)n2C1` (stereo unspecified) the Potency was inconclusive [inhibitor, single point].
With `Cc1nc2c(cnn2CCO)c(=O)[nH]1` the “activity change, negative = growth inhibition” value was inactive: 23.9%.
In the case of `CC1Cc2ccccc2N1C(=O)CNCCCN(C)C` (stereo unspecified), the “activity change, negative = growth inhibition” value is reported as inactive: 10.6%.
In the case of `Cc1cc(SCc2ccc([N+](=O)[O-])cc2)nc(=O)[nH]1`, the “activity change, negative = growth inhibition” value is reported as inactive: 5.84%.
In the case of `Cc1ccccc1Cn1cc(S(=O)(=O)CC(=O)Nc2nccs2)c2ccccc21`, the Potency is reported as inconclusive [inhibitor, partial curve, poor fit].
In the case of `Cc1cccc(N2C(=O)CC(N(O)c3ccccc3)C2=O)c1` (stereo unspecified), the Potency is reported as inconclusive [inhibitor, partial curve, poor fit].
In the case of `OCC(O)CNC(=S)NC1CCCCC1` (stereo unspecified), the “activity change, negative = growth inhibition” value is reported as inactive: 3.91%.
With `Cc1nc(C)c(C(=O)N2CCCC(C(=O)c3ccc(Cl)cc3C)C2)s1` (stereo unspecified) the Potency was active: 18.4 µM.
For `O=C(CSc1nnc2ccc(-c3ccc(F)cc3)nn12)N1CCOCC1`, the “activity change, negative = growth inhibition” value was inactive: 0.417%.
For `COc1ccc(C2=Nc3ccccc3NC(c3cccs3)=N2)cc1`, the Potency was inconclusive [inhibitor, single point].
In the case of `CC(C)C[C@H](NC(=O)c1nc[nH]c1C(=O)N1CCC(C)CC1)C(=O)OCc1ccccc1`, the Potency is reported as inconclusive [inhibitor, partial curve].
For `CCn1cc(C(=O)NC(C)CCc2ccccc2)c(=O)c2cc(S(=O)(=O)N(C)C)ccc21` (stereo unspecified), the “activity change, negative = growth inhibition” value was inactive: -16.4%.
With `Cc1ccc(-n2c3c(cc(C(=O)Nc4ccccc4C(N)=O)c2=O)C(=O)CC(C)(C)C3)cc1` the “activity change, negative = growth inhibition” value was inactive: -1.47%.
With `CC(C(=O)N1CCN(Cc2ccc3c(c2)OCO3)CC1)c1ccc([N+](=O)[O-])cc1` (stereo unspecified) the “activity change, negative = growth inhibition” value was inactive: -3.93%.
For `CCC(c1nnc(SC(C)C(=O)NC2CC2)n1-c1ccc(OC)cc1)N(C)C` (stereo unspecified), the “activity change, negative = growth inhibition” value was inactive: -15.4%.
In the case of `COc1ccc(OCC(=O)c2c(O)c3ccccc3oc2=O)cc1`, the Potency is reported as inconclusive [inhibitor, single point].
With `Cc1ccc(S(=O)(=O)N2CCN(c3ncnc4scc(-c5ccccc5)c34)CC2)cc1` the Potency was inconclusive [inhibitor, single point].
In the case of `O[C@H]1C[C@H](c2ccccc2)N(CC2CCCCC2)C[C@@H]1n1cc(C2CC2)nn1`, the Potency is reported as active: 10.3 µM.
In the case of `Cc1ccc(OCCn2c(C)c(/C=N/n3cnnc3)c3ccccc32)cc1`, the “activity change, negative = growth inhibition” value is reported as inactive: -17.5%.
With `COc1ccccc1NC(=O)c1ccccc1SCC(=O)N1CCCC1` the Potency was inconclusive [inhibitor, partial curve, poor fit].
In the case of `COc1ccc(Nc2nc(-c3cccnc3)cs2)c(OC)c1`, the Potency is reported as inconclusive [inhibitor, single point].
In the case of `CN(Cc1ccccc1)C(=O)COc1cc(Cl)ccc1Cl`, the “activity change, negative = growth inhibition” value is reported as inactive: -17.6%.
In the case of `CCOCCCNc1nc(C(F)(F)F)nc2c1nnn2Cc1ccccc1Cl`, the Potency is reported as active: 18.4 µM.
For `CCCCOc1c(C(=O)Nc2ccccc2)nnn1-c1ccccc1`, the Potency was inconclusive [inhibitor, single point].
In the case of `C=CCNC(=O)/C(C#N)=C/c1c(C)nn(-c2ccccc2)c1Cl`, the Potency is reported as inconclusive [inhibitor, single point].
In the case of `CCCCN(C(=O)NCCCCCCNC(=O)N(CCCC)C1CCS(=O)(=O)C1)C1CCS(=O)(=O)C1` (stereo unspecified), the “activity change, negative = growth inhibition” value is reported as inactive: 2.11%.
With `O=C(NCCCc1ccccc1)c1ccc(-n2cncn2)c([N+](=O)[O-])c1` the Potency was inconclusive [inhibitor, partial curve].
For `CN(c1ccccc1)S(=O)(=O)c1cccc(C(=O)Nc2ccc3c(c2)CCC3)c1`, the Potency was active: 5.17 µM.
For `Cc1nc(Nc2cnc(/C=C/c3cc(C(=O)Nc4cccc(C(F)(F)F)c4)ccc3C)cn2)cc(N2CCNCC2)n1`, the Potency was active: 18.4 µM.
With `O=C(Nc1cccnc1)Nc1ccc2c(c1)OCO2` the Potency was inconclusive [inhibitor, single point].
For `COc1ccccc1CNC(=O)c1c[nH]c2ccc(S(=O)(=O)Nc3cc(C)cc(C)c3)cc2c1=O`, the Potency was inconclusive [inhibitor, single point].
In the case of `CCOc1ccccc1NC(=O)c1nnn(CC(=O)Nc2cc(C)cc(C)c2)c1N`, the “activity change, negative = growth inhibition” value is reported as inactive: -16.5%.
